Test results published in paper PMC11999137.
These are yes or no findings as the source states them, for the method shown. Binding seen in cells or lysates may run through a third protein. Some entries that bind do so weakly or less than the wild type.

By UniProt entry, the sequences of proteins in these tests, tags left out. Where a name states a change or a piece, a line headed by the entry shows the natural chain unless it says otherwise. Residues count along the entry.
UniProt Q04206: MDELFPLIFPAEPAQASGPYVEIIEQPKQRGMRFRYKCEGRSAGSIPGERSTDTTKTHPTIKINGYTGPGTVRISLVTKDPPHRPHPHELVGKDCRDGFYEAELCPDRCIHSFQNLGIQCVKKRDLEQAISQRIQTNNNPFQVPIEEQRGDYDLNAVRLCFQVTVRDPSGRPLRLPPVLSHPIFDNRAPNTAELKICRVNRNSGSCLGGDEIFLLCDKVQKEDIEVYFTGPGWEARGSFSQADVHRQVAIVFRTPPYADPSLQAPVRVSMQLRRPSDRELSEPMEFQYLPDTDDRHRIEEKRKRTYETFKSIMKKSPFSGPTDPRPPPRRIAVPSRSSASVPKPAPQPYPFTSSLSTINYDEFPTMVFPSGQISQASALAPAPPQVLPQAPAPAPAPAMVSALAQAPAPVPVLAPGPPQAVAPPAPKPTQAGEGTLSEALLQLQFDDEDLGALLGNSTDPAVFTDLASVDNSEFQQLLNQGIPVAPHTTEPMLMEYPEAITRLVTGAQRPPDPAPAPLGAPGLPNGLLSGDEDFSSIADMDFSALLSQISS
UniProt Q9UJU2: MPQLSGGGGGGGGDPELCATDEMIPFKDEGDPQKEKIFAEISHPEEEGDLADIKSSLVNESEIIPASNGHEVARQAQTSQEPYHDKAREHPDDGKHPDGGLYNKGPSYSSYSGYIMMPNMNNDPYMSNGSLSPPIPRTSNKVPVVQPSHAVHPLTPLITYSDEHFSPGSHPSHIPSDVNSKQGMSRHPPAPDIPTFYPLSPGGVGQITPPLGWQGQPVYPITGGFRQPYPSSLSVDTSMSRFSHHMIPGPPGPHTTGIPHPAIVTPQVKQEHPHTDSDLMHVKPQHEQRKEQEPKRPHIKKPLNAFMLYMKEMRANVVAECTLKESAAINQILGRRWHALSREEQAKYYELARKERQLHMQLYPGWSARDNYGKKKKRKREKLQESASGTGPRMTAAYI
UniProt P36402: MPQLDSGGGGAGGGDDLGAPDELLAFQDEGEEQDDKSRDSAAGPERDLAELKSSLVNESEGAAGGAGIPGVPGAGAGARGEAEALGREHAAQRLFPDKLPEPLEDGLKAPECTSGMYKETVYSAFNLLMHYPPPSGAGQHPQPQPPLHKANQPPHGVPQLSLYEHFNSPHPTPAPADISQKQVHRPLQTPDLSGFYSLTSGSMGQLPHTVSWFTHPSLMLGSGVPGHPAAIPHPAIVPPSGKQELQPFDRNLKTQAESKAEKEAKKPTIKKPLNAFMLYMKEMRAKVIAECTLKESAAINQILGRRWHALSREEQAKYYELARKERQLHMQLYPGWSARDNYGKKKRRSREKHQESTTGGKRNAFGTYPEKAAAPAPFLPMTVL
UniProt P19838, residues 1-433: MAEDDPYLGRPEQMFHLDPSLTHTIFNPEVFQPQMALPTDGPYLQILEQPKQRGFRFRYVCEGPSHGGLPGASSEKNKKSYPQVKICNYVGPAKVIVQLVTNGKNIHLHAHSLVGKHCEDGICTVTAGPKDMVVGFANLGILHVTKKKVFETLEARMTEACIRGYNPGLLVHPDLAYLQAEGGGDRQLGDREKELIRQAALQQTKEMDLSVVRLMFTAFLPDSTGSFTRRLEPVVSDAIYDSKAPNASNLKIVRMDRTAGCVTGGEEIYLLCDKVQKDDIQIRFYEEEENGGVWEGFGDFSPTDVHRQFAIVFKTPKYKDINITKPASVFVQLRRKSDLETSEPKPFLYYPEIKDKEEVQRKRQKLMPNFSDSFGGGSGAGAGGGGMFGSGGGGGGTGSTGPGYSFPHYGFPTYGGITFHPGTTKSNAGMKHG
UniProt O15111: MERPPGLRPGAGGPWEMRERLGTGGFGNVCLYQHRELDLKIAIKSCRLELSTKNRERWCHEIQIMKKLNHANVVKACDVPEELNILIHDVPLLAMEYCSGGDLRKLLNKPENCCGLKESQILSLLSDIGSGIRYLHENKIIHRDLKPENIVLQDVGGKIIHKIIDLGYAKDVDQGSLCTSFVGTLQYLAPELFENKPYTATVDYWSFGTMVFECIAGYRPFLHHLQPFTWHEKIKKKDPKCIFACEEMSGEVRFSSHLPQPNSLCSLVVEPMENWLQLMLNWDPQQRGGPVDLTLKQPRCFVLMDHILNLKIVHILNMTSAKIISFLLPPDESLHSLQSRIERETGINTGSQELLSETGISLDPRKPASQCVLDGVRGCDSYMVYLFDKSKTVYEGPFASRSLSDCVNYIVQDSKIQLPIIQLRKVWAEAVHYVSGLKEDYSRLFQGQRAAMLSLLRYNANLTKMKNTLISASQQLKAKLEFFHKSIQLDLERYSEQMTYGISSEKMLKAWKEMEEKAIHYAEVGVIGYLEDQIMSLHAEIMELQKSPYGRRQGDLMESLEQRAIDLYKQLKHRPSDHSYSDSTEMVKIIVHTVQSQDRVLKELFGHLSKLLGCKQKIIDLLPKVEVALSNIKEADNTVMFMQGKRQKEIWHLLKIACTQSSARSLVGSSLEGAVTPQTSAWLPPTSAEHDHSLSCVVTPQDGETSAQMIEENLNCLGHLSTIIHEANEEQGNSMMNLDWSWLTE

Biological target: NFκB transcription factor p65/RelA (human (endogenous in resting CD4+ T cells and PHA-treated T cells from PBMC)) (UniProt Q04206)
Test: co-IP

With LEF1 (from UniProt Q9UJU2 1-399) the binding was “no binding”.
In the case of TCF1 (from UniProt P36402 1-384), the binding is reported as “no binding”.
In the case of p50 (from UniProt P19838 1-433), the binding is reported as “binds”.
In the case of “phosphorylated IKKα/β (from UniProt O15111 1-745; O14920 1-756) (complex)”, the binding is reported as “binds”.
